# Some of the results follow. The full chains were built here from the parent and the listed change. Inactive controls read about 0.05.
# B1: TEV protease; numbered along this chain (parent)
# chain: MGESLFKGPRDYNPISSSICHLTNESDGHTTSLYGIGFGPFIITNKHLFRRNNGTLVVQSLHGVFKVKDTTTLQQHLVDGRDMIIIRMPKDFPPFPQKLKFREPQREERICLVTTNFQTKSMSSMVSDTSCTFPSGDGIFWKHWIQTKDGQCGSPLVSTRDGFIVGIHSASNFTNTNNYFTSVPKNFMELLTNQEAQQWVSGWRLNADSVLWGGHKVFMVKPEEPFQPVKEATQL
# Variants of: B1
# Assay: raw area under fraction-flipped curve 0-4 h after induction (AUC4h, not background-subtracted), DNA-recorder readout of cleavage of the substrate (dimensionless); higher = more cleavage of the substrate by the protease variant
# Conditions: temperature: 34 °C; time window: 0-4 h after rhamnose induction
# Method: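 In vivo DNA recorder in E. coli TOP10(DE3) ΔrhaA at 34 °C. Each TEVp single-site mutant (parent TEVp 0) is paired with a single-site variant of the 7-mer TEVs (canonical ENLYFQ|S). The substrate sits between flexible linkers in a Bxb1-sfGFP-TEVs-SsrA fusion, so cleavage stabilises Bxb1 and speeds flipping of a recombination array, read by NGS. The value is the raw area under the fraction-flipped curve over 0-4 h after rhamnose induction (AUC4h), with ≥20 reads per time point. It is not background-subtracted; inactive controls average about 0.047.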
# 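Further: Bxb1 expression induced with 0.2% (w/v) L-rhamnose at OD600 near 0.5, cultures sampled hourly, flipped fraction per protease–substrate barcode pair counted by paired-end Illumina sequencing.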
Variant,area with substrate EALYFQS,area with substrate ECLYFQS,area with substrate EDLYFQS,area with substrate EELYFQS,area with substrate EFLYFQS,area with substrate EGLYFQS,area with substrate EHLYFQS,area with substrate EILYFQS,area with substrate EKLYFQS,area with substrate ELLYFQS,area with substrate EMLYFQS,area with substrate EPLYFQS,area with substrate EQLYFQS,area with substrate ERLYFQS,area with substrate ESLYFQS,area with substrate ETLYFQS,area with substrate EVLYFQS,area with substrate EWLYFQS,area with substrate EYLYFQS
N13W,0.113,0.0857,0.0941,0.115,0.072,0.0972,0.0944,0.0789,0.0842,0.079,0.13,0.0981,0.109,0.0909,0.0818,0.0807,0.0863,0.0742,–
P14I,0.213,0.107,0.107,0.0919,0.1,0.0864,0.0903,0.0855,0.089,–,0.0867,–,0.0916,0.111,0.0929,–,0.082,0.0736,0.125
S16A,0.138,0.107,–,0.118,0.0905,0.128,0.135,0.11,0.112,0.127,0.134,0.138,0.113,0.102,0.103,0.149,0.111,0.101,–
S16C,0.113,0.123,0.111,0.141,–,0.111,–,0.094,0.118,0.1,0.114,0.131,0.112,0.0942,0.112,0.144,0.0937,0.109,0.0876
S16D,0.117,0.0901,0.104,–,0.101,0.1,0.099,0.0736,0.0909,0.084,0.104,0.121,0.0933,0.0424,0.0974,0.117,0.14,0.0762,–
S16E,0.125,0.0894,0.11,0.123,0.113,0.117,0.0984,0.0797,0.117,–,0.115,0.134,0.0986,0.105,0.102,–,0.0954,0.105,–
S16H,0.116,0.088,0.123,0.119,0.0972,0.0883,0.0986,0.0953,0.132,0.0846,0.111,0.126,0.138,0.086,0.102,0.126,0.0981,0.0858,0.101
S16I,0.12,–,0.123,–,–,–,0.124,0.068,0.102,–,0.102,0.118,0.139,0.103,0.0999,–,0.0883,0.0951,0.066
S16L,0.133,0.0835,0.16,–,–,0.0731,0.116,0.0896,0.125,–,0.112,–,0.0954,0.134,0.106,0.118,0.0095,0.0636,–
S16M,0.109,0.102,0.114,0.143,–,–,0.11,0.0918,0.131,0.0777,0.136,0.107,0.136,–,0.114,0.0966,0.111,0.0851,0.108
S16Q,0.0975,0.124,0.172,0.133,0.109,–,0.15,0.104,0.112,0.0975,0.131,0.14,0.122,0.115,0.105,0.113,0.0987,0.106,0.109

# Source: the supplement of paper PMC12217912
